The results in this text go back to the supplement of paper PMC12632987.

The chains are these.
T1: TRAF2, Q12933
T1 chain: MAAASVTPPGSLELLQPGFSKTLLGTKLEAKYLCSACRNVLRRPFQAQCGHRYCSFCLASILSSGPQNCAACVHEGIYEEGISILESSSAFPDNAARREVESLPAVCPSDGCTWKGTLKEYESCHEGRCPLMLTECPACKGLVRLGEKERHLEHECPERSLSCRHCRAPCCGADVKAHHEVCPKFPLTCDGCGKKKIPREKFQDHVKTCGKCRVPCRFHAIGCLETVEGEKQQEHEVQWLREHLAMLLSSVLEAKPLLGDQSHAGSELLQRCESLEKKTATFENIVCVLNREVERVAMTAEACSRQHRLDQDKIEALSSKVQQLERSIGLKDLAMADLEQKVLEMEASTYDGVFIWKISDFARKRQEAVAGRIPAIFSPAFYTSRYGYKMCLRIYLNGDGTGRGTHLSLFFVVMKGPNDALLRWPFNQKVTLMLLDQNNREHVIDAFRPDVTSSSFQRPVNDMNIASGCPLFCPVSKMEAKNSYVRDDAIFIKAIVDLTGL

B1: traf2_out_6_156_2418 (protein)
chain: MVEKIFKAAMKKIEELIKKLAEASEEKKIKYISEIAGTFYRALQELREAGASLEEIEAFAKRLLEETEKALKEAGLDESTRNLVLSSLNAVATVAIEEAK
B2: traf2_out_1_158_920 (protein)
chain: DTKVNLILATIKLVTDAQIQSAKDDGKEEAAKEIAKLGEKILELAKKLLEEEKKSVEELIKAIKELTEEAKKTVDEETAKEIERLERQVISGIKQVDKLM
B3: traf2_out_11_155_750 (protein)
chain: SEKLELLNKMTNEITDIFDEAREKADEIVEEAMEEHPEHAAELEAVREASRNYSPRSYILLMRDKFEELGLEEYAEKLKELIEESQKKANEIVKKTEEEL
B4: traf2_out_15_48_1340 (protein)
chain: STEELREVASEIADEIDAKKDEIAERLEALRPTAAPEVRAPLDRAIEAARHGHGNNTVLALLEELEPLLTPEQRAIVTELRDELAAVVREASRRMAEVLK
B5: traf2_out_11_104_643 (protein)
chain: LTREQAREFNDFAMEANDKAKALLAEVAAFLEAAGHAEEAAKVKALLAHPGSGISSYKNLLEELLPKLDAESKAKAEKAIKELEKLQKEVSEKLNELLEK
B6: traf2_out_17_178_1691 (protein)
chain: SKEEERKKISEYTDKLIDLTEATGRELLARARADGTVSPAELAALEAAIRRGSNRTFLALARRIVPKLATAAEAAALLAAWEAEARELAKKIAEAYKKYE
B7: traf2_out_5_189_2325 (protein)
chain: SAREAEQAALRARARRLTKRATELLNELKEKGASYEEIIKALLEELKKLSIEDANLYRGIAYAILLGDALANNDEELIKAAEEFREKATKLIEERKKEAA
B8: traf2_out_6_3_2520 (protein)
chain: MEESIRRDARTVLENMGITTAEQLKRLVEANVNAVKKLVSRPDVDEADLAGARSVLALTRAMVDVAAETLPDLTPEQVAEMKALIKEAEELVEKKRKELE
B9: traf2_out_13_95_1181 (protein)
chain: SEETKKKINEIADKMIEEVEKVLTEAAEKVKDDPEVKAALDAIKETARTKGISTAIHELEKLAKANPKHKELLKEALEKIKEIRREAGKEVAKIIKEEKE
B10: traf2_out_9_108_2576 (protein)
chain: MSEEEKLEEIFEKILKLAEEFLKENDLSEELKEDLLAAIEQARKLYEEGEKRTAIILLAISLANISFKLGEEVVEKVLKRLKEIDKRAYSAAERMVKLLK
B11: traf2_out_20_38_2003 (protein)
chain: SEEEEEERKLEEIIEVANEAYDEATERIAAMVAAGKTVEEIAAEVRAEVTRLLDAAGLEEERDELLADIDRALASPNALRLFARILARARALVKQKELNK
B12: traf2_out_16_104_1380 (protein)
chain: AAAKQAAFDAIIARLNAIADEANRLANELYELMKTASPEKKVELSDALVRVSELRRRALQAAIDAEQARKDGGDLAAAQATLAELEAELAKLRKEVEALK
B13: traf2_out_11_169_877 (protein)
chain: EEAEFNRELNDFALELNDEAKEKLKEFSLKLAKELGLDVEEIEKIFEKNKNKSLSYVASELIRYFKEKGKEEAAQEVLEKYEELKEEINKKFSEKLKELK
B14: traf2_out_6_156_2381 (protein)
chain: KKEEILKEAKEEIEKQIKALSEAPEEKKIAYINKIAGTVYKALQKLRELGASLEELKEFTERIKEFVKKQLDKYGLDESTKNLILGSINAVGEVALRNAA
B15: traf2_out_19_16_1967 (protein)
chain: MEEEVEAIEERLERIEEEVERLERYFEENEETLTREELSDLLVELSELRREAQELRERLLELEGLDPERVEALIERAEEIIERAQRLMNRVVDKYLELLK
B16: traf2_out_9_17_2629 (protein)
chain: AAREARRRETIRATADAFLDELEAEGVISPESVAKIRAAIDAAEARGLSPEELRAAVVGTLATTLLFDEKKSVKEANEYAGRLYRRIREALARTDAELAA
B17: traf2_out_6_3_2517 (protein)
chain: MEESIRKDARTVLENMGITTVEQLKKLVEANVNAVKKLVSRKDVDRADLAAANSVLNLTRAMVEVAAETLPDLTEEDVKEMNALIDEARELIEKKKKELE
B18: traf2_out_13_95_1164 (protein)
chain: SEEKTKKEREIASKAYDEMEEVATEYAEKVRALIDDPEAAALMDEVVRNMNEFTLEHATDELIARYPEKAEELEKLRDEALEKMREIRKKTTKELNEIEK
B19: traf2_out_17_178_1670 (protein)
chain: DKEEERKKISELTDKLIDLTEATAERLLALARAEGALSPEELALLEAALRSGSANTFLAVARRLAPKLPSAEEAQAILDAFEAEYKKLSKEIAEAYKKYE
B20: traf2_out_20_3_2083 (protein)
chain: EELEKKLEEELEKAIKLLKEAAKLADEETAKKLKELIKKIKESRELSPVDRLVVLSEVRREVLLLAQQAKAEGNEELAKILEEAAEALNRAMNLLMKIIE
B21: traf2_out_16_171_1429 (protein)
chain: SAEERAERIREEAERRAREIKERLELMRESLPLIQKELGWSKETILRSFESRARELIEEFERWIEEQKPKVDEETREYLERLLEELKRHAEELIRELREE
B22: traf2_out_9_108_2578 (protein)
chain: MTEEERLEEIFKKILELAEEFLEENDLSEELRESLLAAIEQAEKLYKEGEKRTAIILLAISLARVSYEVGEEVVEKVLKRLEEIDPRAYSAARRMVELLK
B23: traf2_out_18_54_1949 (protein)
chain: AELEALKEEARKVIEEWEEKVLALVADDPELQAMVREMRERVLRALETEGLWAAVTVFRRESTELIAAITDPEVADAVGDIAAEARNKLAKLAIEYEKAK
B24: traf2_out_14_149_1252 (protein)
chain: SETEKKKEALKKAAELMEEIIKILEKALKAGSTDVDMEKIKALVEEAKKILKEQGFVLGHLLAIEDMLETTKEFTLEDIKALKELAEKARESLLVLAEML
B25: traf2_out_17_178_1696 (protein)
chain: SKEEILKKISELTDELIDLADKYGTELIEKAKAEGVLTPEELARLEAALASGSNRTLLATAKEIIPKSKASEETKKLLAEFEAEYRKLAKKIAEAYEKYE
B26: traf2_out_17_178_1746 (protein)
chain: DKEKLKKKINELNGKIADVDDKLIEEIVKLAEADPTLSPEAKAAIKAAARAGSARTAAALFLENSTDPELKKEAKELLAKAAKEKNKLADEILKAIEEMK
B27: traf2_out_8_144_2535 (protein)
chain: MMSRRELANRLANALVELDELKELADEETKEVLTKARRHIGQALNLVVFGGPREEILKEIEKAIEYLKEAKKLVEDNPELKEKVEKILKELKEIAKNVKE
B28: traf2_out_18_3_1922 (protein)
chain: KEEERQKISDEIDEVLDETRARAREELARGKKEIPEYAERFEELEALLEAGAGPFGILDEIAELYREAGLEEEAEEVERFRREKRRKMQELVDKYEELIK
B29: traf2_out_11_155_722 (protein)
chain: EKKREAQNKIVDFSLEVGDELLKEVEAIIAEVAERDPAVAAELRAIVARHLRFSATSAARAAIDALRERGLEEEAERLEKALEEAQKRKSEEIKRIEEEL

Whole data set: some 1,800 sequences, median “median log2 fold change of GCK-ALFA target abundance (FLAG IP / Myc IP barcode read proportion)” near 0.14, cut for the lowest 2% near -0.84. This is one part of the list.

The assay has as its target T1, TRAF2, Q12933. As to the kind of experiment: median log2 fold change of GCK-ALFA target abundance (FLAG IP / Myc IP barcode read proportion) (log2 ratio); each designed protein is fused to an ALFA-tag nanobody in HEK293 cells to bring the named protein to FLAG-tagged glucokinase (GCK); Myc marks an untargeted standard; higher = target protein stabilised (more abundant). As to conditions: target protein: 3xFLAG-MCP-GCK-ALFA reporter; HEK293 landing pad (RPLP). A digest of the protocol: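 HEK293 landing-pad cells received a recombined binder library fused to the ALFA nanobody and were induced with 2 μg mL^−1 doxycycline, then transfected with a plasmid encoding a FLAG-tagged target and a Myc-tagged standard. Lysates were collected after 48 h for anti-FLAG and anti-Myc immunoprecipitation, and the circular RNA barcodes were reverse transcribed, amplified and sequenced. Target abundance for each binder is the median log2 ratio of FLAG to Myc barcode read proportions. Barcodes had to reach a proportion of at least 10^−7 in both replicates, each binder needed at least 3 barcodes per replicate, a pseudocount of 10^−6 was applied, and the two replicates were pooled.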
Turning to B1, the “median log2 fold change” value was -0.284.
As to B2, the “median log2 fold change” value came out at 0.0658.
Take B3: the “median log2 fold change” value is 0.1.
To B4 belongs 0.311; to B5, 0.285.
For B6, the “median log2 fold change” value was -0.561.
Then B7, with -0.433; and B8, with -0.989; and B9, with 0.0976.
Then B10, with -0.295.
To B11 belongs -0.767; to B12, 0.599.
Regarding B13, the “median log2 fold change” value was 0.412.
Then B14, with -0.0372; and B15, with -0.121; and B16, with 0.00506.
As to B17, the “median log2 fold change” value was -1.1.
To B18 belongs 0.212; to B19, 0.0801.
For the molecule B20, the “median log2 fold change” value is 0.61.
To B21 belongs -0.0449; to B22, -0.362.
Then B23, with 0.046; and B24, with 0.209; and B25, with 0.138.
To B26 belongs 0.0249; to B27, 0.0969; to B28, 0.307.
Regarding B29, the “median log2 fold change” value was found to be 0.206.
